# Experimental data reported in the supplement of paper PMC11417369.
# The list shows a part of the results.
# System: PfSIP2 AP2 domain 1 (GST-tagged)
# Assay: gcPBM binding intensity (ln(normalized median fluorescence intensity)); higher = stronger DNA binding
# In short: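 Binding intensity is the highest Masliner-normalised natural-log median intensity over replicate spots in either probe orientation. To obtain it, GST-tagged P. falciparum DNA-binding domains made in E. coli were incubated for 1 h on an Agilent 4 × 180k array of primer-extended double-stranded 36-bp intergenic genomic probes plus negative controls. Detection used Alexa488 anti-GST antibody with scanning at 488 nm.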
row,Sequence,gcPBM binding intensity (ln)
1,TAATTTTTTTTTTTTTTTTTTTTTTTTTTTTTTTTA [CACACA_negctrl_site1218],6.91
2,TTTTCATTCCACAACGCACACCCATTTAAAAAAAAA [CACACA_site1377],7.76
3,AAAAAATATTTTAGTGGTACATTTGTAGCTCTCAAA [XGTACX_site4859],6.58
4,AATCAAATATTTAAATGTACTCAAGAAGGCTTAATC [XGTACX_site6907],6.96
5,ATAACATGAACATATGTTACACAAACATACATACAT [XGTACX_negctrl_site365],7.17
6,AAAAATATAATATAATGTACACAAAAAAAAAAAATC [XGTACX_site1427],7.1
7,TATGAAGACACAAATACACACACTCAAAAAAAAAAA [CACACA_site2660],6.93
8,GAAAAAAAAAAAAAAAAACACACGGTACATTCAAAG [CACACA_site303],6.86
9,AAATTATAATTAGGAACACACATATATATATATATA [CACACA_site3098],9.59
10,TACATACATACATACATACACACATATATATATATA [CACACA_site1996],9.18
11,TACATGTATAATATAATACACACTATATAATATACA [CACACA_site2239],6.92
12,ATCAAACAAAAAATAAAAAAATGCGACATGTGTACA [TGCATGCA_negctrl_site164],7.06
13,GAAAATTATGTATATTGTACAAATATTATATTAAAT [XGTACX_site2467],6.97
14,TTAATATTTTTAATTTGTACATATAATTAAATCTCT [XGTACX_site1736],6.84
15,TATAAAATTTAAATTATACACACTTAAGTAACATCA [CACACA_site531],7.14
16,CAAGGACAATTTACAAACATAATATATGTATATATA [TGCATGCA_negctrl_site5],7
17,TTGAATACATATATATGTACATATTCTATGGTTAGA [XGTACX_site4088],6.94
18,ATTATCTTCAAGTATGTACACACTATATATAATAAA [CACACA_site2441],7.19
19,CTGAGGAAGCTAATTACACACATGCATATTTTTTTT [CACACA_site2177],7.07

row,Sequence,gcPBM binding intensity (ln)
1,TTTTTTTTACATGAACGTACATAATATATTTTATAA [XGTACX_site5249],7.08
2,TGGTGTTTTTTTTAATGTACTTATAAAATAATACAT [XGTACX_site6574],7.29
3,ATGTAAAAATAAAGATGTACATGTATATATATATAT [XGTACX_site5193],9.19
4,AATATATATTCATGTGTACACACAAAAAAAAATAAA [CACACA_site8690],7.55
5,CCTATAATTAGGGGTAGTACACAAAAAAAAAAAAAA [XGTACX_site6396],7.66
6,AATTCCTTATACAATTGTACATAAAAAGAATAAAAA [XGTACX_site1343],7.41
7,TTAAAAAAGAATTGTGCACACACAAAAAATGTTCAT [CACACA_site1102],8.76
8,TATGGGTATGTATTCACACATAACAAAAATATCAAA [CACACA_site5059],6.89
9,ATATATATATATAACACACGCAAAAAAATTAAATAA [CACACA_site1400],9.16
10,TTTTATATATTCAATTGTACATGTATTTTTTTTTTT [XGTACX_site3584],6.99
11,CAAAGACACAAACACACACACACATACATACATACA [CACACA_site453],8.24
12,ATAAATTTACTTGATTGTACATTTCTTAGTTGTATT [XGTACX_site3057],6.82
13,TATACTGATAAAAAAAGTACTAGAGTTTGTAAAAAT [XGTACX_site3934],6.72
14,CACAAGAAAGTTCACACACACACATATATATATATA [CACACA_site6009],9.6
15,TTATATGTCAATTTGCGTACATACATAATTACATAT [XGTACX_site1546],6.99
16,AATTTTAATTTTTTGACACACATATAATATATATAT [CACACA_site3978],8.25
17,ATAAGGTTACAACAAACACACAAAGGAATATACGCA [CACACA_site4090],7.22
18,AAGAAGAATAGGCGTTGTACGGAATGTAGTAGAGTT [XGTACX_site2430],7.28
19,TTAATATAAATATGATTTTTGATTCCTATACTATTT [CACACA_negctrl_site752],6.56

row,Sequence,gcPBM binding intensity (ln)
1,TTGTATTCATATGGTTGTACATATTAAAAGTTCTAA [XGTACX_site7255],6.97
2,TTTATTTTTAAAGGCACACACATTTTTATTTTTAAA [CACACA_site2021],6.93
3,TTCTTTTTTTTCAGTTGTACTTATAAGAAAGAAAAA [XGTACX_site4028],7.2
4,TTTATTTATAGAATTACACACATATATACACAAATG [CACACA_site7338],7.2
5,ATATATATAACAAAAGTGCATTAAGGGGATGCTATA,8.25
6,TTATTATAAATAGGTAGTACATTTTGAACAAATATT [XGTACX_site8866],7.3
7,AATATAAATATAGGAAATGTAGTTAAAAGGTGTATG [CACACA_negctrl_site1233],7.29
8,ATACGACAAATATAAAGTACAAGCTTGGTTTTTATA [XGTACX_site8103],6.84
9,TATGCAAGGAACCACACACACACACGGAAATGTATA [CACACA_site6490],6.94
10,AATTATGGGGAAAAGACACACATATATATATATATA [CACACA_site2589],9.55
11,TTATATATATATGTATGTACTTATAACTTTTATTAG [XGTACX_site3190],6.92
12,ATTCTATAGAAACACACACACATGCATGCACCTATA [CACACA_site107],11.7
13,TTGAGCCTACAAAAGGGTACACATTCAATTTATTTT [XGTACX_site6570],6.92
14,AAAAAAAAAAGAAATTGTACTTTTTGTTTAATAATT [XGTACX_site4681],6.65
15,ATATTTTGTTATGAAACACACACATATATATATATA [CACACA_site9216],9.43
16,ATTATATACAAATAAAGTACATAAACAAATTCAGAA [XGTACX_site1187],7.13
17,TATTTCAAACTGTTCTCACACACGAAATTAGAAATG [CACACA_site611],6.95
18,ATAAAATGATGTATCTGTGTATGTTTATTTTGTTTT [XGTACX_negctrl_site367],6.87
